# Measured values: the supplement of paper PMC10369915
# This is one part of the list. Cut-off read from the data, not from the text of the source: active = 3.2 or more and inactive = the rest. Most of these values are background signal.
# Experiments:
# Assay in all cases: enrichment score (SH2-bound / input frequency) (ratio); bacterial display of known human phosphotyrosine sites (pTyr-Var adds point mutants) read by sequencing; higher = stronger binding; tyrosines were phosphorylated by kinases first
# Details in all cases: peptide library: pTyr-Var
# SHP2 C-SH2 domain E139D = biological target: SHP2 C-SH2 domain E139D
# [1] = biological target: SHP2 C-SH2 domain wild-type
# SHP2 N-SH2 domain L43F = biological target: SHP2 N-SH2 domain L43F
# SHP2 N-SH2 domain T42A = biological target: SHP2 N-SH2 domain T42A
# SHP2 N-SH2 domain T52S = biological target: SHP2 N-SH2 domain T52S
# [2] = biological target: SHP2 N-SH2 domain wild-type
# 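Note: displayed peptides selected on beads carrying the immobilized SH2 domain, with library peptides lacking any tyrosine serving as negative controls.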
Binder,enrichment score (SHP2 C-SH2 domain E139D),enrichment score [1],enrichment score (SHP2 N-SH2 domain L43F),enrichment score (SHP2 N-SH2 domain T42A),enrichment score (SHP2 N-SH2 domain T52S),enrichment score [2]
PVDGEYFTLQI [TP53_Y327_L323V],inactive: 0.614,inactive: 0.99,inactive: 0.836,inactive: 0.742,inactive: 0.522,inactive: 1.16
PLDGEYFTHQI [TP53_Y327_L330H],inactive: 0.766,inactive: 0.827,inactive: 0.765,inactive: 0.707,inactive: 0.672,inactive: 0.974
PLDGEYFTPQI [TP53_Y327_L330P],inactive: 0.741,inactive: 0.794,inactive: 0.781,inactive: 0.605,inactive: 0.991,inactive: 0.852
RLDGEYFTLQI [TP53_Y327_P322R],inactive: 0.809,inactive: 1.05,inactive: 0.718,inactive: 0.693,inactive: 0.743,inactive: 0.887
PLDGEYFTLRI [TP53_Y327_Q331R],inactive: 0.781,inactive: 1.13,inactive: 1.17,inactive: 0.802,inactive: 0.681,inactive: 1.24
PLDGEYFILQI [TP53_Y327_T329I],inactive: 0.941,inactive: 1.34,inactive: 0.876,inactive: 0.792,inactive: 0.711,inactive: 1.61
PLDGEYFSLQI [TP53_Y327_T329S],inactive: 1.08,inactive: 0.837,inactive: 0.711,inactive: 0.934,inactive: 0.679,inactive: 0.736
RAMPVYKKAEH [TP63_Y231],inactive: 0.193,inactive: 0.587,inactive: 0.366,inactive: 0.37,inactive: 0.647,inactive: 0.446
RAMPVYEKAEH [TP63_Y231_K232E],inactive: 0.662,inactive: 0.541,inactive: 0.527,inactive: 0.386,inactive: 0.495,inactive: 0.5
DELDKYSEALK [TPM1_Y60],inactive: 0.603,inactive: 0.444,inactive: 0.488,inactive: 0.529,inactive: 0.682,inactive: 0.641
DELDKYSEVLK [TPM1_Y60_A63V],inactive: 0.505,inactive: 0.853,inactive: 0.723,inactive: 0.828,inactive: 0.727,inactive: 0.78
LEDEVYAQKMK [TPM2_Y261],inactive: 0.896,inactive: 1.01,inactive: 0.817,inactive: 0.651,inactive: 0.931,inactive: 0.79
NNVEQYQAMVT [TPR_Y965_S960N],inactive: 0.782,inactive: 0.861,inactive: 0.728,inactive: 0.704,inactive: 0.71,inactive: 0.661
SGLDSYVRSLP [TRAPPC1_Y133_R129G],inactive: 0.784,inactive: 0.523,inactive: 0.598,inactive: 0.537,inactive: 0.587,inactive: 0.637
LSEEKYELKEG [TREM1_Y29_T25S],inactive: 0.901,inactive: 0.911,inactive: 0.752,inactive: 0.686,inactive: 0.693,inactive: 0.944
TSPALYRLDLD [TRIL_Y352_A347T],inactive: 1.2,inactive: 0.799,inactive: 0.778,inactive: 0.703,inactive: 0.681,inactive: 0.95
WNGDKYAATTT [TRIM39_Y439],inactive: 0.859,inactive: 0.599,inactive: 0.556,inactive: 0.644,inactive: 0.779,inactive: 0.721
RGGWAYVLHPT [TRMT61A_Y67_V66A],inactive: 1.29,inactive: 1.26,inactive: 1.09,inactive: 0.853,inactive: 1.11,inactive: 1.31
PKSLFYLLLKP [TRPC6_Y775_L780P],inactive: 2.68,inactive: 2.75,inactive: 2.37,inactive: 2.52,active: 3.22,inactive: 2.34
